Measurements: PMC4336329 (PLoS ONE, 2015)
Hit rate of the full screen: of about 310,000 compounds, about 14,000 (4.5%) showed an effect of 50% or more. The effect is printed as a negative number. This is one part of the list.

What follows are compounds tested against human ether-à-go-go-related gene (hERG) potassium channel (human, UniProt Q12809) (assay: primary screen, population patch clamp on CHO cells stably expressing hERG).
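Also: peak tail current of the secondary pulse compared with the same well before compound.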

Sequence of human ether-à-go-go-related gene (hERG) potassium channel (Q12809 whole entry, looked up): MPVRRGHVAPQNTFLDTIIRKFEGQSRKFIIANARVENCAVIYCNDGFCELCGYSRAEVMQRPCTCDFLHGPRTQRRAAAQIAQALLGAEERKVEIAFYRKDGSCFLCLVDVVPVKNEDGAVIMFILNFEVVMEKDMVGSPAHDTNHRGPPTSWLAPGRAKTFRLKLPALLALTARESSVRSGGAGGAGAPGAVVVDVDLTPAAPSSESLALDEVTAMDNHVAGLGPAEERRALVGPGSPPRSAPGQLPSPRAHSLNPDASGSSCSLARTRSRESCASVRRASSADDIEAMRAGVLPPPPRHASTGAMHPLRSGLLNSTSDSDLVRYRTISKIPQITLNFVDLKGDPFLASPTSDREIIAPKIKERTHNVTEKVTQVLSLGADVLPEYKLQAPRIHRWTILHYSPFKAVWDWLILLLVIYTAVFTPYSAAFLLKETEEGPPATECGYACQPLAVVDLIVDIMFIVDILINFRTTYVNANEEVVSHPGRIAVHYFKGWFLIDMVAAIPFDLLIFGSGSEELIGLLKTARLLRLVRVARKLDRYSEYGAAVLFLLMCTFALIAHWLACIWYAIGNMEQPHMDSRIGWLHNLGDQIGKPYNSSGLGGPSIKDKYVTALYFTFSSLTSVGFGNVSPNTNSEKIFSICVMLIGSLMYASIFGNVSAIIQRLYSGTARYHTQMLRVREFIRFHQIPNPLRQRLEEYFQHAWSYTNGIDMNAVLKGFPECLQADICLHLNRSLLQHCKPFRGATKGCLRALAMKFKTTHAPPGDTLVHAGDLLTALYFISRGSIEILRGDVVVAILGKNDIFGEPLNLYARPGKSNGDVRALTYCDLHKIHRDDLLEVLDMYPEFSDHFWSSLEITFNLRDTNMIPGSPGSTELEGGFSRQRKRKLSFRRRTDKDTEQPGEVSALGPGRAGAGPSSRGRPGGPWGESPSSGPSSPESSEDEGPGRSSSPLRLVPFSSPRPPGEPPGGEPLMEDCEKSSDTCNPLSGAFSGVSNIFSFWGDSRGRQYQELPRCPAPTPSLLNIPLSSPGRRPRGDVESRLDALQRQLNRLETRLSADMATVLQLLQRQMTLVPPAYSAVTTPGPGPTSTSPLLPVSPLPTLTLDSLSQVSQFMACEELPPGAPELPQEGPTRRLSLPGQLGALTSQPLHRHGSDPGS

| Structure (SMILES) | hERG current change (%, negative = inhibition) at 10uM |
| --- | --- |
| COc1ccccc1CCC(=O)OCC(=O)Nc1c(C)nn(-c2ccccc2)c1C | -6.38% |
| O=C(Nc1ccc(OC(F)(F)F)cc1)C1CC(c2ccc(F)cc2)=NO1 (centres unmarked) | 27.5% |
| COC(=O)c1ccc(COc2ccc(CNCc3ccc(Cl)cc3)cc2)cc1 | -0.414% |
| CCN(CC)c1ccc(NC(=O)Cn2c(C(C)NC(=O)c3ccccc3)nc3ccccc32)cc1 (centres unmarked) | 21.2% |
| Cc1ccc(O)c(O)c1 | 1.66% |
| CC(C)c1ccc(S(=O)(=O)N2CCC(C(=O)N3CCC3)CC2)cc1 | -9.72% |
| COC(=O)Cn1c(=NC(=O)c2nc3ccccc3s2)sc2cc(S(C)(=O)=O)ccc21 | -65.2% |
| CCCCOc1ccc(CN2CCC(O)CC2)cc1 | 3.42% |
| COc1ccc(C(=O)C2CCCN(C(=O)c3cccc(Cl)c3F)C2)cc1OC (centres unmarked) | -5.57% |
| Cc1cccc(N(CC(=O)Nc2ccc(F)cc2)S(C)(=O)=O)c1 | -6.2% |
| Cc1c(Br)c([N+](=O)[O-])nn1CC(=O)NCc1cccs1 | -12% |
| CC#CC[N+](C)(C)CCCCCCCC.[Br-] | -40.1% |
| O=[N+]([O-])c1ccc(COc2ccc(-c3[nH]ncc3-c3ccc(Cl)cc3)c(O)c2)cc1 | -4.28% |
| CCN(CC)S(=O)(=O)c1ccc(C(=O)NCc2ccc(C)cc2)cc1 | -6.85% |
| CCCNC(=O)c1cc(SC)ccc1Cl | -12.8% |
| O=C1Nc2ccccc2C(O)(C(=O)NCc2ccc3c(c2)OCO3)N1c1ccccc1 (centres unmarked) | 3.85% |
| O=C(C1COc2ccccc2O1)N1CCN(c2ccccc2F)CC1 (centres unmarked) | 9.47% |
| CCOC(=O)C(=O)C1C(=O)Nc2ccccc21 (centres unmarked) | 19.6% |
| CS/C(=N/S(=O)(=O)c1ccc(C)cc1)c1ccccc1 | -3.56% |
| COc1cc(CNC(C)(C)C)cc(Br)c1OCc1cccs1.Cl | -28.7% |
| CCOC(=O)Cn1c(=O)oc2cc(S(=O)(=O)N3CCCc4ccccc43)ccc21 | -26.9% |
| CC(C)(C)C(=O)/C(=C/c1ccncc1)n1cncn1 | -5.13% |
| CCOc1ccc(NC(=O)Cc2ccccc2)c([N+](=O)[O-])c1 | -7.21% |

| Structure (SMILES) | hERG current change (%, negative = inhibition) at 10uM |
| --- | --- |
| CCCC1C(c2ccccc2)C(C#N)(C#N)C2(C#N)CC1(N)NC2=O (centres unmarked) | 6.5% |
| COCc1c(C(=O)Nc2ccc(Cl)cc2F)oc2ccccc12 | 28.4% |
| CCOc1ccc(-c2cccc(NS(=O)(=O)c3cc([N+](=O)[O-])ccc3Cl)c2)nn1 | -11.2% |
| O=C(OCC(=O)N1CCN(C(=O)c2ccco2)CC1)c1cn(-c2ccccc2)nc1-c1ccccc1 | -67% |
| CCn1nnnc1SCC(=O)Nc1sc(C)c(C)c1C#N | -2.65% |
| Cc1ccc(C(=O)NCC(=O)N2CCN(c3ncccn3)CC2)s1 | -22.7% |
| CCOP(=O)(Cc1ccc(C#N)o1)OCC | 21.9% |
| O=C(c1ccc(O)cc1)c1ccc(C(=O)O)c(C(=O)O)c1 | 23.2% |
| O=[N+]([O-])c1cccc(-c2nnc(CNC3CC3)o2)c1 | -26.1% |
| CC(=O)c1cnc(Nc2ccc(C)cc2)s1 | 7.54% |
| COc1ccc(CNc2c(CO)cnc3c2cnn3C)cc1 | -13% |
| Br.Brc1ccc(C2=Nn3c(nnc3-c3cccnc3)SC2)s1 | -2.26% |
| Cc1ccc2c(C)c(C(=O)N3CCC(O)(c4ccccc4)CC3)oc2c1C | 10.9% |
| CC(c1ccco1)N(C(=O)COc1ccc(Cl)cc1Cl)c1ccccn1 (centres unmarked) | -18.5% |
| CCc1sc(C(=O)Nc2ccccc2N2CCOCC2)cc1C | -17.9% |
| O=C(NCc1ccncc1)c1nc(-c2cccs2)no1 | -12.5% |
| CCCCc1ccc(-c2nc(NC(=O)C3C4CCC(O4)C3C(=O)O)sc2C)cc1 (centres unmarked) | 1.03% |
| O=C(CSc1nccn(-c2ccc3c(c2)OCCO3)c1=O)Nc1ccccc1 | -1.69% |
| COc1ccc(/C=C/C(=O)OCC(=O)c2c(C)[nH]c3ccccc23)cc1OC | -0.339% |
| CCCc1cc(=O)oc2c(C)c(O)c(CN3CCCCC3)cc12 | -22.9% |
| COC(=O)CSc1nc(N2CCOCC2)c2c(c1C#N)CCCC2 | -12.3% |
| COc1ccc(OC)c(S(=O)(=O)N(C)CC(=O)O)c1 | -3.34% |
| CCc1c(C)sc(NC(=O)CN2CCN(C(=O)c3ccco3)CC2)c1C(=O)OC | -39.7% |

| Structure (SMILES) | hERG current change (%, negative = inhibition) at 10uM |
| --- | --- |
| COc1ccc(C2NC(=O)NC(C)=C2C(=O)OCc2ccc3c(c2)OCO3)cc1OC (centres unmarked) | 1.09% |
| COc1cc(OC)cc(C(=O)N2CCC(C(=O)NCCc3ccccc3)CC2)c1 | 6.04% |
| c1ccc2c(-c3nn[nH]n3)cccc2c1 | 8.31% |
| Cc1ccccc1S(=O)(=O)c1c(C)cc(C)n(CC(C)C)c1=O | 9.99% |
| O=C(Nc1ccccc1)N1CCCC(c2nc(-c3cccs3)no2)C1 (centres unmarked) | -24.4% |
| COc1ccc(/C=N\NC(=O)c2ccccc2Br)cc1COc1ccc(F)cc1 | 17.2% |
| CC(C)Oc1ccc(-c2nn(-c3ccccc3)cc2/C=c2\sc3ncnn3c2=O)cc1 | -1.06% |
| COc1cc([N+](=O)[O-])ccc1NC(=O)N1CCCCCC1 | -12.9% |
| CS(=O)(=O)c1ccc2nc(NC(=O)C3CC(=O)N(c4ccccc4)C3)sc2c1 (centres unmarked) | -4.25% |
| O=C(CSC1=NCCN1)NC1CCCCCC1 | -8.6% |
| Cc1cc(=O)n2[nH]c(SCc3ccccc3)nc2n1 | 5.28% |
| CCCCc1nnc(NC(=O)CSc2nc(O)c(-c3ccccc3)c(=O)[nH]2)s1 | 1.48% |
| CC(C)c1nnc(NC(=O)CN2C(=O)c3ccccc3C2=O)s1 | -2.22% |
| Cc1ccc(C)c(-n2sc3ccc(F)cc3c2=O)c1 | 14.7% |
| COC(=O)CC1=NN(c2ccccc2)C(=O)/C1=C\c1ccc(OC)cc1 | 1.3% |
| CCc1nc2ccc(C(=O)NC3CCC(C)CC3)cc2nc1CC (centres unmarked) | -40.5% |
| CC(=O)c1ccccc1NC(=O)c1ccc2c(c1)NC(=O)C(C)S2 (centres unmarked) | -3.91% |
| CCCN(CCC)S(=O)(=O)c1nc2nc(C)cc(C)n2n1 | 12.4% |
| COc1cccc(C(=O)NN2CCOCC2)c1 | -0.196% |
| CC(NCc1cccc(S(=O)(=O)N(C)C)c1)c1ccc(F)cc1 (centres unmarked) | -4.94% |
| O=C(COC(=O)c1ccc[nH]c1=O)Nc1cc(S(=O)(=O)N2CCCCC2)ccc1Cl | 7.9% |
| Cc1ccc(S(=O)(=O)c2c(C)cc(C)nc2Oc2cccc(C(F)(F)F)c2)cc1 | 13.4% |
| COC(=O)NNC(=O)C1CCC(C(=O)NNC(=O)OC)CC1 (centres unmarked) | -2.6% |

| Structure (SMILES) | hERG current change (%, negative = inhibition) at 10uM |
| --- | --- |
| Cc1c(/C=C2\NC(=O)NC2=O)c2ccccc2n1C | -11.4% |
| Cc1cccc(C)c1N(CC(=O)NCc1ccco1)C(=O)CNS(=O)(=O)c1ccc(F)cc1 | -5.63% |
| COc1ccc(Cn2c(=O)[nH]c3cc(C(=O)NC4CCCC4)ccc3c2=O)cc1 | 15.1% |
| O=C(N/N=C/c1ccncc1)c1ccc(NS(=O)(=O)c2cccs2)cc1 | 8.88% |
| COc1cccc(C(=O)Cn2c(Br)nc3c2c(=O)n(C)c(=O)n3C)c1 | -13.1% |
| COc1ccccc1NC(=O)C1=C(C)Nc2ncnn2C1c1cccs1 (centres unmarked) | 12% |
| CC(C)[C@H](NC(=O)c1ccccc1)C(=O)OCC(=O)c1ccc2c(c1)NC(=O)CO2 | -26.3% |
| CSc1nnc(C2CCNCC2)n1C.Cl | 9.99% |
| CN(Cc1ccccc1)C(=O)CSc1nc2ccccc2c(=O)n1Cc1ccco1 | -3.56% |
| CCN(C(=O)COC(=O)CCC(=O)c1cccs1)c1c(N)n(Cc2ccccc2)c(=O)[nH]c1=O | -4.97% |
| CCCCNC(=S)NNC(=O)c1cc(-c2ccncc2)nc2ccccc12 | 23.6% |
| O=C1/C(=C\c2cc3c(cc2Br)OCO3)N2CCC1CC2 | 7.62% |
| CCC(c1nnnn1C(C)(C)CC)N(CCCN1CCOCC1)Cc1cc2cccc(C)c2[nH]c1=O (centres unmarked) | -13.5% |
| CCn1c(/C=C/c2ccc(F)cc2)nc2ccccc2c1=O | -5.52% |
| CCOCCc1c(O)nc(SCC(=O)N2CCOCC2)[nH]c1=O | 25.4% |
| CC(=O)C(Sc1ccc2nnc(-c3ccc(F)cc3)n2n1)C(C)=O | 8.13% |
| CCC(=O)N1N=C(c2ccc(C)o2)CC1c1ccc(OC)cc1 (centres unmarked) | 1.57% |
| COc1ccccc1N1CCN(C(=O)C(C)NC(=O)c2ccco2)CC1 (centres unmarked) | 16.1% |
| O=C(Nc1cc(F)cc(F)c1)c1ccc(NCCc2ccccc2)c([N+](=O)[O-])c1 | 3.74% |
| Cc1cc(NC(=O)CCC(=O)N(c2ccccc2)C(C(=O)NC2CCCC2)c2cccs2)no1 (centres unmarked) | 8.57% |
